# Experimental data reported in the supplement of paper PMC8728848.
# The other results are listed elsewhere or left out.
# B1: rAAL-H59Q (Agrocybe aegerita), Q6WY08 (protein)
# chain: MQGVNIYNISAGTSVDLAAPVTTGDIVTFFSSALNLNAGAGNPNNTTLNLFAENGAYLLQIAFRLQENVIIFNSRQPDGPWLVEQRVSDVANQFAGIDGKAMVTVFDHGDKYQVVINEKTVIQYTKQISGLTLSLSYNATEETSIFSTVVEAVTYTGLALEHHHHHH
# Assays:
# Assay in all cases: glycan array binding signal (z-score within array); higher = stronger binding
# Settings in all cases: glycan notation: IUPAC condensed, linker removed; mutation: H59Q
# [1] = molecular target: Fuc(a1-2)[GalNAc(b1-3)]Gal
# How it was run: (§1)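 Columns mapping to the same glycan were averaged after glycan names were converted to IUPAC-condensed notation. The data come from 3228 arrays in the Consortium for Functional Glycomics database, limited to those with an available protein sequence. Binding is reported as a within-array Z-score averaged across arrays of one protein sequence and across linkers.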
# Fuc(a1-3)GlcNAc = molecular target: Fuc(a1-3)GlcNAc
# How it was run: as §1
# [2] = molecular target: Fuc(a1-3)[Gal(b1-4)]Glc6S
# How it was run: as §1
# [3] = molecular target: Fuc(a1-3)[Gal(b1-4)]GlcNAc
# How it was run: as §1
# [4] = molecular target: Fuc(a1-3)[Gal(b1-4)]GlcNAc(b1-2)Man
# How it was run: as §1
# [5] = molecular target: Fuc(a1-3)[Gal(b1-4)]GlcNAc(b1-2)Man(a1-3)[Fuc(a1-3)[Gal(b1-4)]GlcNAc(b1-2)Man(a1-6)]Man(b1-4)GlcNAc(b1-4)GlcNAc
# How it was run: as §1
# [6] = molecular target: Fuc(a1-3)[Gal(b1-4)]GlcNAc(b1-2)Man(a1-3)[Fuc(a1-3)[Gal(b1-4)]GlcNAc(b1-2)Man(a1-6)]Man(b1-4)GlcNAc(b1-4)[Fuc(a1-6)]GlcNAc
# How it was run: as §1
# [7] = molecular target: Fuc(a1-3)[Gal(b1-4)]GlcNAc(b1-3)Gal(b1-3)[Fuc(a1-4)]GlcNAc
# How it was run: as §1
# [8] = molecular target: Fuc(a1-3)[Gal(b1-4)]GlcNAc(b1-3)Gal(b1-4)[Fuc(a1-3)]GlcNAc
# How it was run: as §1
# [9] = molecular target: Fuc(a1-3)[Gal(b1-4)]GlcNAc(b1-3)Gal(b1-4)[Fuc(a1-3)]GlcNAc(b1-3)Gal(b1-4)[Fuc(a1-3)]GlcNAc
# How it was run: as §1
# [10] = molecular target: Fuc(a1-3)[Gal(b1-4)]GlcNAc(b1-3)GalNAc
# How it was run: as §1
# [11] = molecular target: Fuc(a1-3)[Gal(b1-4)]GlcNAc(b1-6)GalNAc
# How it was run: as §1
# [12] = molecular target: Fuc(a1-3)[Gal(b1-4)]GlcNAc(b1-6)[Gal(b1-3)GlcNAc(b1-3)]Gal(b1-4)Glc
# How it was run: as §1
# [13] = molecular target: Fuc(a1-3)[Gal(b1-4)]GlcNAc6S
# How it was run: as §1
# [14] = molecular target: Fuc(a1-3)[Gal3S(b1-4)]Glc
# How it was run: as §1
# [15] = molecular target: Fuc(a1-3)[Gal3S(b1-4)]GlcNAc
# How it was run: as §1
# [16] = molecular target: Fuc(a1-3)[Gal3S(b1-4)]GlcNAc6S
# How it was run: as §1
# [17] = molecular target: Fuc(a1-3)[GalNAc(b1-4)]GlcNAc
# How it was run: as §1
# [18] = molecular target: Fuc(a1-3)[GalNAc(b1-4)]GlcNAc6S
# How it was run: as §1
# Fuc(a1-4)GlcNAc = molecular target: Fuc(a1-4)GlcNAc
# How it was run: as §1
# Fuc(b1-3)GlcNAc = molecular target: Fuc(b1-3)GlcNAc
# How it was run: as §1
# Gal(a1-2)Gal = molecular target: Gal(a1-2)Gal
# How it was run: as §1
# Gal(a1-3)Gal = molecular target: Gal(a1-3)Gal
# How it was run: as §1
# Gal(a1-3)Gal(b1-3)GlcNAc = molecular target: Gal(a1-3)Gal(b1-3)GlcNAc
# How it was run: as §1
# [19] = molecular target: Gal(a1-3)Gal(b1-3)GlcNAc(b1-2)Man
# How it was run: as §1
# [20] = molecular target: Gal(a1-3)Gal(b1-3)GlcNAc(b1-2)Man(a1-3)[Gal(a1-3)Gal(b1-3)GlcNAc(b1-2)Man(a1-6)]Man(b1-4)GlcNAc(b1-4)GlcNAc
# How it was run: as §1
# [21] = molecular target: Gal(a1-3)Gal(b1-3)GlcNAc(b1-3)GalNAc
# How it was run: as §1
# [22] = molecular target: Gal(a1-3)Gal(b1-3)GlcNAc(b1-6)GalNAc
# How it was run: as §1
# [23] = molecular target: Gal(a1-3)Gal(b1-3)[Fuc(a1-4)]GlcNAc(b1-2)Man(a1-3)[Gal(a1-3)Gal(b1-3)[Fuc(a1-4)]GlcNAc(b1-2)Man(a1-6)]Man(b1-4)GlcNAc(b1-4)GlcNAc
# How it was run: as §1
# Gal(a1-3)Gal(b1-4)Glc = molecular target: Gal(a1-3)Gal(b1-4)Glc
# How it was run: as §1
# Gal(a1-3)Gal(b1-4)GlcNAc = molecular target: Gal(a1-3)Gal(b1-4)GlcNAc
# How it was run: as §1
# [24] = molecular target: Gal(a1-3)Gal(b1-4)GlcNAc(b1-2)Man
# How it was run: as §1
# [25] = molecular target: Gal(a1-3)Gal(b1-4)GlcNAc(b1-2)Man(a1-3)[Gal(a1-3)Gal(b1-4)GlcNAc(b1-2)Man(a1-6)]Man(b1-4)GlcNAc(b1-4)GlcNAc
# How it was run: as §1
# [26] = molecular target: Gal(a1-3)Gal(b1-4)GlcNAc(b1-3)GalNAc
# How it was run: as §1
# [27] = molecular target: Gal(a1-3)Gal(b1-4)GlcNAc(b1-6)GalNAc
# How it was run: as §1
# [28] = molecular target: Gal(a1-3)Gal(b1-4)[Fuc(a1-3)]GlcNAc
# How it was run: as §1
# [29] = molecular target: Gal(a1-3)Gal(b1-4)[Fuc(a1-3)]GlcNAc(b1-2)Man(a1-3)[Gal(a1-3)Gal(b1-4)[Fuc(a1-3)]GlcNAc(b1-2)Man(a1-6)]Man(b1-4)GlcNAc(b1-4)GlcNAc
# How it was run: as §1
# Gal(a1-3)GalNAc = molecular target: Gal(a1-3)GalNAc
# How it was run: as §1
# [30] = molecular target: Gal(a1-3)[Gal(a1-4)]Gal(b1-4)GlcNAc
# How it was run: as §1
# [31] = molecular target: Gal(a1-4)Gal(b1-3)GlcNAc(b1-2)Man(a1-3)[Gal(a1-4)Gal(b1-3)GlcNAc(b1-2)Man(a1-6)]Man(b1-4)GlcNAc(b1-4)GlcNAc
# How it was run: as §1
# Gal(a1-4)Gal(b1-4)Glc = molecular target: Gal(a1-4)Gal(b1-4)Glc
# How it was run: as §1
# Gal(a1-4)Gal(b1-4)GlcNAc = molecular target: Gal(a1-4)Gal(b1-4)GlcNAc
# How it was run: as §1
# [32] = molecular target: Gal(a1-4)Gal(b1-4)GlcNAc(b1-2)Man(a1-3)[Gal(a1-4)Gal(b1-4)GlcNAc(b1-2)Man(a1-6)]Man(b1-4)GlcNAc(b1-4)GlcNAc
# How it was run: as §1
# [33] = molecular target: Gal(a1-4)Gal(b1-4)GlcNAc(b1-3)Gal(b1-4)Glc
# How it was run: as §1
# Gal(a1-4)GlcNAc = molecular target: Gal(a1-4)GlcNAc
# How it was run: as §1
binder,measurement,setting,value
B1,glycan array binding signal (z-score),[1],-0.062
same,glycan array binding signal (z-score),Fuc(a1-3)GlcNAc,-0.127
same,glycan array binding signal (z-score),[2],-0.092
same,glycan array binding signal (z-score),[3],-0.072
same,glycan array binding signal (z-score),[4],-0.099
same,glycan array binding signal (z-score),[5],-0.108
same,glycan array binding signal (z-score),[6],0
same,glycan array binding signal (z-score),[7],-0.096
same,glycan array binding signal (z-score),[8],-0.091
same,glycan array binding signal (z-score),[9],-0.156
same,glycan array binding signal (z-score),[10],-0.074
same,glycan array binding signal (z-score),[11],-0.126
same,glycan array binding signal (z-score),[12],-0.045
same,glycan array binding signal (z-score),[13],0.026
same,glycan array binding signal (z-score),[14],-0.044
same,glycan array binding signal (z-score),[15],-0.078
same,glycan array binding signal (z-score),[16],-0.128
same,glycan array binding signal (z-score),[17],-0.044
same,glycan array binding signal (z-score),[18],-0.05
same,glycan array binding signal (z-score),Fuc(a1-4)GlcNAc,-0.056
same,glycan array binding signal (z-score),Fuc(b1-3)GlcNAc,-0.053
same,glycan array binding signal (z-score),Gal(a1-2)Gal,-0.11
same,glycan array binding signal (z-score),Gal(a1-3)Gal,-0.084
same,glycan array binding signal (z-score),Gal(a1-3)Gal(b1-3)GlcNAc,-0.068
same,glycan array binding signal (z-score),[19],-0.107
same,glycan array binding signal (z-score),[20],-0.06
same,glycan array binding signal (z-score),[21],-0.039
same,glycan array binding signal (z-score),[22],-0.04
same,glycan array binding signal (z-score),[23],-0.014
same,glycan array binding signal (z-score),Gal(a1-3)Gal(b1-4)Glc,-0.07
same,glycan array binding signal (z-score),Gal(a1-3)Gal(b1-4)GlcNAc,-0.079
same,glycan array binding signal (z-score),[24],-0.106
same,glycan array binding signal (z-score),[25],-0.009
same,glycan array binding signal (z-score),[26],-0.116
same,glycan array binding signal (z-score),[27],-0.109
same,glycan array binding signal (z-score),[28],-0.116
same,glycan array binding signal (z-score),[29],0.052
same,glycan array binding signal (z-score),Gal(a1-3)GalNAc,-0.094
same,glycan array binding signal (z-score),[30],-0.065
same,glycan array binding signal (z-score),[31],-0.065
same,glycan array binding signal (z-score),Gal(a1-4)Gal(b1-4)Glc,-0.112
same,glycan array binding signal (z-score),Gal(a1-4)Gal(b1-4)GlcNAc,0.035
same,glycan array binding signal (z-score),[32],-0.074
same,glycan array binding signal (z-score),[33],-0.057
same,glycan array binding signal (z-score),Gal(a1-4)GlcNAc,-0.091
